The text below walks through data of the supplement of paper PMC12067230.

Single values of this set are uncertain.
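Note: [psi-pin-] Saccharomyces cerevisiae expressing SupN fusions, induced by 100 µM Cu2SO4, selected 7 d at 30 °C without adenine and uracil, scored by deep sequencing of output versus input.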

The first series in a line: amyloid nucleation score relative to library mode (yeast Sup35 reporter selection) (log enrichment difference); higher = more amyloid nucleation; sequences are the first 22 residues of the Bri2 peptide extended by up to 12 random residues. As to conditions: random library (experiment): 1;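 active = nucleation score significantly above 0 at FDR 0.05; inactive = not significantly above 0 or absent from output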.
Consider EASNCFAIRHFENKFAVETLICLNQAFCEPAGLG, for which the amyloid nucleation score entry was “inactive”. The same measure, in the same setting: next, EASNCFAIRHFENKFAVETLICLNQMAHRVEAIV: “inactive”; EASNCFAIRHFENKFAVETLICLNRQKQVMWSMR: “inactive”; EASNCFAIRHFENKFAVETLICLNRSGLYEWGVG: 2.49. In turn, EASNCFAIRHFENKFAVETLICLNRTFCPRCSDT came in with an amyloid nucleation score of 5.54. Same read-out and setting: next, EASNCFAIRHFENKFAVETLICLNSERTSSPTPR: 0. As for EASNCFAIRHFENKFAVETLICLNSGPTHSYAER, the amyloid nucleation score entry was “inactive”.

In the case of EASNCFAIRHFENKFAVETLICLNTFCLCIRPQR, the amyloid nucleation score was found to be 5.05. Same read-out and setting: next, EASNCFAIRHFENKFAVETLICLNTGFKGNQPLS: 2.6. Same read-out and setting: next, EASNCFAIRHFENKFAVETLICLNTGWGGCGCRS: 8.28. As to EASNCFAIRHFENKFAVETLICLNVFYNFVRFVT, the amyloid nucleation score result is “inactive”. As to EASNCFAIRHFENKFAVETLICLNVGISLFGVYV, the amyloid nucleation score result is “inactive”.

Turning to EASNCFAIRHFENKFAVETLICLNVYCCTYCPSA, the amyloid nucleation score came to 7.76.

Take EASNCFAIRHFENKFAVETLICLNWFWRGCMGKA: the amyloid nucleation score entry is “inactive”.

Regarding EASNCFAIRHFENKFAVETLICLNWSLGAGRGVM, the amyloid nucleation score came to 0.6.

As to EASNCFAIRHFENKFAVETLICLPA, the amyloid nucleation score entry was “inactive”. EASNCFAIRHFENKFAVETLICLPAGGNYGVAQA: the amyloid nucleation score result is “inactive”. In the case of EASNCFAIRHFENKFAVETLICLPAIKTNRCGYS, the amyloid nucleation score result was “inactive”.

With EASNCFAIRHFENKFAVETLICLPARLELLWCMC, the amyloid nucleation score is 0.664. Still for that read-out and setting: next, EASNCFAIRHFENKFAVETLICLPDVNLVLLKP: “inactive”; EASNCFAIRHFENKFAVETLICLPESCGTKPNQL: “inactive”; EASNCFAIRHFENKFAVETLICLPESIMVSSLRV: -0.116. On the same count and under the same terms, next, EASNCFAIRHFENKFAVETLICLPGCGPYCSDSA: 7.97; EASNCFAIRHFENKFAVETLICLPHGV: “inactive”.

Turning to EASNCFAIRHFENKFAVETLICLPIDDSSLRDPI, the amyloid nucleation score was -0.179. As for EASNCFAIRHFENKFAVETLICLPISCCIVVCMN, the amyloid nucleation score turned out to be 2.21.

The sequence EASNCFAIRHFENKFAVETLICLPKKNALGRDGC showed an amyloid nucleation score of 1.8.

Regarding EASNCFAIRHFENKFAVETLICLPKLSVICLCVS, the amyloid nucleation score entry was “inactive”. On the same count and under the same terms, next, EASNCFAIRHFENKFAVETLICLPLEHEGHEGCM: “inactive”; EASNCFAIRHFENKFAVETLICLPLISFELLLGG: -0.146; EASNCFAIRHFENKFAVETLICLPMGLLVAFRCN: “inactive”.

Regarding EASNCFAIRHFENKFAVETLICLPNANVR, the amyloid nucleation score result is “inactive”.

Turning to EASNCFAIRHFENKFAVETLICLPPSFMC, the amyloid nucleation score came out at 8.53.

For the sequence EASNCFAIRHFENKFAVETLICLPQFLSGTSACW, the amyloid nucleation score was found to be 7.25.

With EASNCFAIRHFENKFAVETLICLPRDSTLNRGCL, the amyloid nucleation score is -0.227.

Turning to EASNCFAIRHFENKFAVETLICLPSAL, the amyloid nucleation score result is “inactive”. On the same count and under the same terms, then EASNCFAIRHFENKFAVETLICLPSEG, with “inactive”.

The series is the same for the next values; noted with them: random library (experiment): 2.
Regarding EASNCFAIRHFENKFAVETLICLNQCVNACMCFS, the amyloid nucleation score amounted to 5.42.

Turning to EASNCFAIRHFENKFAVETLICLNRDSRNHANSG, the amyloid nucleation score result is “inactive”. Same read-out and setting: next, EASNCFAIRHFENKFAVETLICLNRDVFVQGRNI: 4.5; EASNCFAIRHFENKFAVETLICLNRKCIIYWN: “inactive”. Still for that read-out and setting: next, EASNCFAIRHFENKFAVETLICLNSRPGVRARAR: “inactive”; EASNCFAIRHFENKFAVETLICLNTHDYVLNLRW: “inactive”; EASNCFAIRHFENKFAVETLICLNTPAVFLCWCM: 5.78. Take EASNCFAIRHFENKFAVETLICLNVCQPQSPACT: the amyloid nucleation score result is “inactive”. Same read-out and setting: then EASNCFAIRHFENKFAVETLICLNVNFRMLMVED, with -0.0392; and EASNCFAIRHFENKFAVETLICLNVTNASSFDSV, with 6.53; and EASNCFAIRHFENKFAVETLICLNWLCYKWLWQF, with “inactive”. Same read-out and setting: next, EASNCFAIRHFENKFAVETLICLNWLGVGCVYKR: 0.105; EASNCFAIRHFENKFAVETLICLNYLLHFGDIKW: “inactive”; EASNCFAIRHFENKFAVETLICLPCGHDQ: 5.81. Same read-out and setting: next, EASNCFAIRHFENKFAVETLICLPDGLRPWEWVG: 5.16; EASNCFAIRHFENKFAVETLICLPGSCSSSWSIA: 6.44.

Turning to EASNCFAIRHFENKFAVETLICLPIVNRLDTYGA, the amyloid nucleation score entry is “inactive”. Still for that read-out and setting: next, EASNCFAIRHFENKFAVETLICLPNGNEGFCVLR: “inactive”.

With EASNCFAIRHFENKFAVETLICLPNT, the amyloid nucleation score entry was “inactive”.

Turning to EASNCFAIRHFENKFAVETLICLPRSKVFPCRKL, the amyloid nucleation score result was “inactive”.

The same series, now with this note: random library (experiment): 3.
Take EASNCFAIRHFENKFAVETLICLNMWRT: the amyloid nucleation score entry is “inactive”. For the sequence EASNCFAIRHFENKFAVETLICLNTDISNLGYDG, the amyloid nucleation score turned out to be 4.13. In the case of EASNCFAIRHFENKFAVETLICLNVNDTSDSM, the amyloid nucleation score is 6.73. In the case of EASNCFAIRHFENKFAVETLICLNVRYSCVPRYN, the amyloid nucleation score was found to be 5.24.

For the sequence EASNCFAIRHFENKFAVETLICLP, the amyloid nucleation score is -0.0854. Same read-out and setting: next, EASNCFAIRHFENKFAVETLICLPCRLVR: “inactive”; EASNCFAIRHFENKFAVETLICLPESGHCCVGHP: 5.24; EASNCFAIRHFENKFAVETLICLPGNGLPPGLRG: 3.4. For EASNCFAIRHFENKFAVETLICLPHFSVLDMYCC, the amyloid nucleation score worked out at 7.49. Same read-out and setting: then EASNCFAIRHFENKFAVETLICLPIGLFRYGDAE, with 8.33; and EASNCFAIRHFENKFAVETLICLPKHCSLLRTMV, with “inactive”; and EASNCFAIRHFENKFAVETLICLPLTTGCEFSAW, with “inactive”. Still for that read-out and setting: then EASNCFAIRHFENKFAVETLICLPPLGTPRRNCL, with 1.1; and EASNCFAIRHFENKFAVETLICLPQCCTPIVGGS, with 0.758. For EASNCFAIRHFENKFAVETLICLPQWSNKMRFLE, the amyloid nucleation score result is “inactive”. On to EASNCFAIRHFENKFAVETLICLPRITCRYFN, for which the amyloid nucleation score was determined as 4.5. The sequence EASNCFAIRHFENKFAVETLICLPRSS came in with an amyloid nucleation score of 2.95.

Take EASNCFAIRHFENKFAVETLICLPS: the amyloid nucleation score result is “inactive”.
